# Results taken from the supplement of paper PMC8728848.
# The list shows a part of the results.
# What was measured:
# Test in all cases: glycan array binding signal (z-score within array); higher = stronger binding
# Conditions in all cases: glycan notation: IUPAC condensed, linker removed
# [1] = biological target: Gal(b1-4)GlcNAc(b1-3)Gal(b1-4)GlcNAc(b1-3)[Gal(b1-4)GlcNAc(b1-3)Gal(b1-4)GlcNAc(b1-6)]GalNAc
# Method in brief: (§1)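 Columns mapping to the same glycan were averaged after glycan names were converted to IUPAC-condensed notation. The data come from 3228 arrays in the Consortium for Functional Glycomics database, limited to those with an available protein sequence. Binding is reported as a within-array Z-score averaged across arrays of one protein sequence and across linkers.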
# [2] = biological target: Gal(b1-4)GlcNAc(b1-3)Gal(b1-4)GlcNAc(b1-6)[Gal(b1-3)]GalNAc
# Method in brief: as §1
# [3] = biological target: Gal(b1-4)GlcNAc(b1-3)Gal(b1-4)[Fuc(a1-3)]GlcNAc(b1-3)Gal(b1-4)[Fuc(a1-3)]GlcNAc
# Method in brief: as §1
# [4] = biological target: Gal(b1-4)GlcNAc(b1-3)GalNAc
# Method in brief: as §1
# [5] = biological target: Gal(b1-4)GlcNAc(b1-3)[Fuc(a1-3)GlcNAc(b1-6)]Gal(b1-4)Glc
# Method in brief: as §1
# [6] = biological target: Gal(b1-4)GlcNAc(b1-3)[Gal(b1-4)GlcNAc(b1-6)]Gal(b1-4)GlcNAc
# Method in brief: as §1
# [7] = biological target: Gal(b1-4)GlcNAc(b1-3)[GlcNAc(b1-6)]Gal(b1-4)GlcNAc
# Method in brief: as §1
# [8] = biological target: Gal(b1-4)GlcNAc(b1-6)Gal(b1-4)GlcNAc
# Method in brief: as §1
# [9] = biological target: Gal(b1-4)GlcNAc(b1-6)GalNAc
# Method in brief: as §1
# [10] = biological target: Gal(b1-4)GlcNAc(b1-6)[Gal(b1-3)]GalNAc
# Method in brief: as §1
# [11] = biological target: Gal(b1-4)GlcNAc(b1-6)[Gal(b1-4)GlcNAc(b1-3)]GalNAc
# Method in brief: as §1
# Gal(b1-4)GlcNAc6P = biological target: Gal(b1-4)GlcNAc6P
# Method in brief: as §1
# Gal(b1-6)Gal = biological target: Gal(b1-6)Gal
# Method in brief: as §1
# Gal3S(b1-3)GalNAc = biological target: Gal3S(b1-3)GalNAc
# Method in brief: as §1
# Gal3S(b1-3)GlcNAc = biological target: Gal3S(b1-3)GlcNAc
# Method in brief: as §1
# [12] = biological target: Gal3S(b1-3)[Fuc(a1-4)]GlcNAc
# Method in brief: as §1
# Gal3S(b1-4)Glc = biological target: Gal3S(b1-4)Glc
# Method in brief: as §1
# Gal3S(b1-4)Glc6S = biological target: Gal3S(b1-4)Glc6S
# Method in brief: as §1
# Gal3S(b1-4)GlcNAc = biological target: Gal3S(b1-4)GlcNAc
# Method in brief: as §1
# [13] = biological target: Gal3S(b1-4)[Fuc(a1-3)]Glc6S
# Method in brief: as §1
# [14] = biological target: Gal3S(b1-4)[Fuc(a1-3)]GlcNAc
# Method in brief: as §1
# [15] = biological target: Gal3S(b1-4)[Fuc(a1-3)]GlcNAc6S
# Method in brief: as §1
# Gal3S4S(b1-4)GlcNAc = biological target: Gal3S4S(b1-4)GlcNAc
# Method in brief: as §1
# Gal3S6S(b1-4)GlcNAc = biological target: Gal3S6S(b1-4)GlcNAc
# Method in brief: as §1
# Gal3S6S(b1-4)GlcNAc6S = biological target: Gal3S6S(b1-4)GlcNAc6S
# Method in brief: as §1
# Gal4S(b1-4)GlcNAc = biological target: Gal4S(b1-4)GlcNAc
# Method in brief: as §1
# Gal4S6S(b1-4)GlcNAc = biological target: Gal4S6S(b1-4)GlcNAc
# Method in brief: as §1
# Gal6P(b1-4)GlcNAc = biological target: Gal6P(b1-4)GlcNAc
# Method in brief: as §1
# Gal6S(b1-3)GlcNAc = biological target: Gal6S(b1-3)GlcNAc
# Method in brief: as §1
# Gal6S(b1-3)GlcNAc6S = biological target: Gal6S(b1-3)GlcNAc6S
# Method in brief: as §1
# Gal6S(b1-4)Glc = biological target: Gal6S(b1-4)Glc
# Method in brief: as §1
# Gal6S(b1-4)Glc6S = biological target: Gal6S(b1-4)Glc6S
# Method in brief: as §1
# Gal6S(b1-4)GlcNAc = biological target: Gal6S(b1-4)GlcNAc
# Method in brief: as §1
# Gal6S(b1-4)GlcNAc6S = biological target: Gal6S(b1-4)GlcNAc6S
# Method in brief: as §1
# GalNAc(a1-3)Gal = biological target: GalNAc(a1-3)Gal
# Method in brief: as §1
# GalNAc(a1-3)GalNAc = biological target: GalNAc(a1-3)GalNAc
# Method in brief: as §1
# [16] = biological target: GalNAc(a1-3)GalNAc(b1-3)Gal(a1-4)Gal(b1-4)Glc
# Method in brief: as §1
# [17] = biological target: GalNAc(a1-3)GalNAc(b1-3)Gal(a1-4)Gal(b1-4)GlcNAc
# Method in brief: as §1
# GalNAc(b1-3)Gal = biological target: GalNAc(b1-3)Gal
# Method in brief: as §1
# [18] = biological target: GalNAc(b1-3)Gal(a1-4)Gal(b1-4)GlcNAc
# Method in brief: as §1
# [19] = biological target: GalNAc(b1-3)Gal(a1-4)Gal(b1-4)GlcNAc(b1-3)Gal(b1-4)Glc
# Method in brief: as §1
# [20] = biological target: GalNAc(b1-3)Gal(a1-6)Gal(b1-4)Glc
# Method in brief: as §1
# GalNAc(b1-3)GalNAc = biological target: GalNAc(b1-3)GalNAc
# Method in brief: as §1
# GalNAc(b1-3)GlcNAc = biological target: GalNAc(b1-3)GlcNAc
# Method in brief: as §1
# GalNAc(b1-4)Gal(b1-4)Glc = biological target: GalNAc(b1-4)Gal(b1-4)Glc
# Method in brief: as §1
binder,measurement,setting,value
"LBL-152 (Laetiporus bicolor), B0D650 (protein) MSNEYNPPLGIAFRLCGLASDRVLFSRVSPSPEVFHHPKSEVYPDQWFVAIPGSGQNAGCYAIKSKNTGKVLFSRMSPDPRVGHIDGDGKYPDNWFKFEAGSGKYAGYFRLRAVASDTVLVSRTSTGTDTQVINYPATSAKYDDQYFTILFDHHHHHH",glycan array binding signal (z-score),[1],-0.14
same,glycan array binding signal (z-score),[2],-0.155
same,glycan array binding signal (z-score),[3],-0.14
same,glycan array binding signal (z-score),[4],-0.158
same,glycan array binding signal (z-score),[5],-0.155
same,glycan array binding signal (z-score),[6],0.119
same,glycan array binding signal (z-score),[7],-0.14
same,glycan array binding signal (z-score),[8],-0.159
same,glycan array binding signal (z-score),[9],-0.146
same,glycan array binding signal (z-score),[10],-0.149
same,glycan array binding signal (z-score),[11],-0.136
same,glycan array binding signal (z-score),Gal(b1-4)GlcNAc6P,-0.158
same,glycan array binding signal (z-score),Gal(b1-6)Gal,-0.154
same,glycan array binding signal (z-score),Gal3S(b1-3)GalNAc,-0.143
same,glycan array binding signal (z-score),Gal3S(b1-3)GlcNAc,-0.141
same,glycan array binding signal (z-score),[12],-0.155
same,glycan array binding signal (z-score),Gal3S(b1-4)Glc,-0.139
same,glycan array binding signal (z-score),Gal3S(b1-4)Glc6S,-0.142
same,glycan array binding signal (z-score),Gal3S(b1-4)GlcNAc,-0.141
same,glycan array binding signal (z-score),[13],-0.128
same,glycan array binding signal (z-score),[14],-0.152
same,glycan array binding signal (z-score),[15],-0.148
same,glycan array binding signal (z-score),Gal3S4S(b1-4)GlcNAc,-0.148
same,glycan array binding signal (z-score),Gal3S6S(b1-4)GlcNAc,-0.133
same,glycan array binding signal (z-score),Gal3S6S(b1-4)GlcNAc6S,-0.135
same,glycan array binding signal (z-score),Gal4S(b1-4)GlcNAc,-0.139
same,glycan array binding signal (z-score),Gal4S6S(b1-4)GlcNAc,-0.152
same,glycan array binding signal (z-score),Gal6P(b1-4)GlcNAc,-0.155
same,glycan array binding signal (z-score),Gal6S(b1-3)GlcNAc,-0.15
same,glycan array binding signal (z-score),Gal6S(b1-3)GlcNAc6S,-0.154
same,glycan array binding signal (z-score),Gal6S(b1-4)Glc,-0.141
same,glycan array binding signal (z-score),Gal6S(b1-4)Glc6S,-0.153
same,glycan array binding signal (z-score),Gal6S(b1-4)GlcNAc,-0.151
same,glycan array binding signal (z-score),Gal6S(b1-4)GlcNAc6S,-0.148
same,glycan array binding signal (z-score),GalNAc(a1-3)Gal,-0.152
same,glycan array binding signal (z-score),GalNAc(a1-3)GalNAc,-0.148
same,glycan array binding signal (z-score),[16],-0.158
same,glycan array binding signal (z-score),[17],-0.157
same,glycan array binding signal (z-score),GalNAc(b1-3)Gal,-0.157
same,glycan array binding signal (z-score),[18],-0.138
same,glycan array binding signal (z-score),[19],-0.142
same,glycan array binding signal (z-score),[20],-0.159
same,glycan array binding signal (z-score),GalNAc(b1-3)GalNAc,-0.146
same,glycan array binding signal (z-score),GalNAc(b1-3)GlcNAc,-0.16
same,glycan array binding signal (z-score),GalNAc(b1-4)Gal(b1-4)Glc,-0.154
